In paper PMC5700166:
The list shows a part of the results, in another mix than the full data. The list includes weakly bound sequences.

Tests used:
Experiment in all cases: protein-binding microarray (PBM)
Settings in all cases: PBM: ~300 nM protein, 6 mM HEPES pH 7.8, 80 mM KCl, 0.5 mM EDTA, 0.5 mM EGTA, 6% glycerol, 35 ng/ul poly-dIdC, 1% milk, 1 h, room temperature; Ap Aiptasia and Nv Nematostella (sea anemones) / Co Capsaspora / Aq Amphimedon (sponge) / Dm Drosophila / Hu human; RHD is the Rel homology domain; high values mean tight binding; most listed sequences are background and not binding sites; double strand, one strand shown
GST-Ap-NF-kB RHD = target: T1, GST-Ap-NF-kB RHD (UniProt A0A913YAJ5)
T1 sequence: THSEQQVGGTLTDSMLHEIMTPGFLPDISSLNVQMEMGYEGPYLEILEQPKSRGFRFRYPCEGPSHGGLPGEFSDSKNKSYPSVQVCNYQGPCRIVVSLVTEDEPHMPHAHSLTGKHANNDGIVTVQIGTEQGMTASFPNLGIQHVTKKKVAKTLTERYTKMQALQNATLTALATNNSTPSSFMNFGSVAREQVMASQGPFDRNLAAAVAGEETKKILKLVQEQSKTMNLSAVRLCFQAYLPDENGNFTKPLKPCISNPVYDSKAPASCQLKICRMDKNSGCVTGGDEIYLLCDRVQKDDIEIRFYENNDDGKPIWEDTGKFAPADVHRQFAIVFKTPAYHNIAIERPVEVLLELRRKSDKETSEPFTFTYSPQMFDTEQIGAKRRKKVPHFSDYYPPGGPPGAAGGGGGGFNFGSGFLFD

GST-Co-NF-kB = target: T2, GST-Co-NF-kB (UniProt F1ARL5)
T2 sequence: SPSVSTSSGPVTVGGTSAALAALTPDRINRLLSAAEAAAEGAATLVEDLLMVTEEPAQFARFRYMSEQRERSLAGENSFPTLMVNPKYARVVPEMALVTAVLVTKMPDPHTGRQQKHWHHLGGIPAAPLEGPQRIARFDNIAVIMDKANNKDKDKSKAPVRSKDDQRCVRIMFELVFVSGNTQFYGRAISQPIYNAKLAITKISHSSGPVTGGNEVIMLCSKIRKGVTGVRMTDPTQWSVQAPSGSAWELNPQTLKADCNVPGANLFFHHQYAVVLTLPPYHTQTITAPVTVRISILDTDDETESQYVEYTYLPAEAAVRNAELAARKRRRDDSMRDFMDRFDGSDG

GST-Dm-Relish = target: T3, GST-Dm-Relish (UniProt Q94527)
T3 sequence: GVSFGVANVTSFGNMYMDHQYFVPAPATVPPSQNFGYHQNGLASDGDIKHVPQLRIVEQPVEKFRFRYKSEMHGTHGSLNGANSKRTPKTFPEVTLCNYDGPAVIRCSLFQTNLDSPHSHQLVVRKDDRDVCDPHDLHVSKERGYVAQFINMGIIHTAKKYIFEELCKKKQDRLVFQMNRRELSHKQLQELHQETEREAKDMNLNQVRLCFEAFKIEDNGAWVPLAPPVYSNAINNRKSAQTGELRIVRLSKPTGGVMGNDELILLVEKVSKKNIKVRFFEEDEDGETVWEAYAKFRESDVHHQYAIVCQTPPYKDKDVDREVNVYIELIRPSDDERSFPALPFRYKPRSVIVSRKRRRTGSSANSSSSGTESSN

Sequence	binding signal (GST-Ap-NF-kB RHD)	binding signal (GST-Co-NF-kB)	binding signal (GST-Dm-Relish)
CCGATTAACATCAGTAGTGGGGCTGATGTTAATCGGGTCTTGATTCGCTTGACGCTGCTG	0.671 z-score	0.971 z-score	0.449 z-score
CCGATTAACATCAGGGAGAACCCTGATGTTAATCGGGTCTTGATTCGCTTGACGCTGCTG	4.28 z-score	1.72 z-score	4.39 z-score
CCGATTAACATCAGGGGAAAAACTGATGTTAATCGGGTCTTGATTCGCTTGACGCTGCTG	6.41 z-score	9.24 z-score	9.62 z-score
CCGATTAACATCAGGACATACCCTGATGTTAATCGGGTCTTGATTCGCTTGACGCTGCTG	1.92 z-score	0.242 z-score	2.79 z-score
CCGATTAACATCAGGGGGGACGATGATGTTAATCGGGTCTTGATTCGCTTGACGCTGCTG	5.01 z-score	5.85 z-score	3.77 z-score
CCGATTAACATCAGGGGAAACCATGATGTTAATCGGGTCTTGATTCGCTTGACGCTGCTG	6.6 z-score	8.24 z-score	6.18 z-score
CCGATTAACATCAAGTACGGGAATGATGTTAATCGGGTCTTGATTCGCTTGACGCTGCTG	1.11 z-score	2.85 z-score	0.738 z-score
CCGATTAACATCAGGGCAGCCCCTGATGTTAATCGGGTCTTGATTCGCTTGACGCTGCTG	4.41 z-score	1.25 z-score	4.16 z-score
CCGATTAACATCACATGTGGGAATGATGTTAATCGGGTCTTGATTCGCTTGACGCTGCTG	0.772 z-score	2.62 z-score	0.788 z-score
CCGATTAACATCAGGGTCTTATATGATGTTAATCGGGTCTTGATTCGCTTGACGCTGCTG	0.081 z-score	0.142 z-score	0.926 z-score
CCGATTAACATCAATACCCCCCCTGATGTTAATCGGGTCTTGATTCGCTTGACGCTGCTG	6.7 z-score	6.7 z-score	5.66 z-score
CCGATTAACATCACCCCATCCCCTGATGTTAATCGGGTCTTGATTCGCTTGACGCTGCTG	4.19 z-score	2.99 z-score	2.37 z-score
CCGATTAACATCAGGGGAATGCATGATGTTAATCGGGTCTTGATTCGCTTGACGCTGCTG	5.82 z-score	5.53 z-score	3.2 z-score
CCGATTAACATCAAGGAACCCCCTGATGTTAATCGGGTCTTGATTCGCTTGACGCTGCTG	8.43 z-score	2.03 z-score	10.4 z-score
CCGATTAACATCACATTCCCCCCTGATGTTAATCGGGTCTTGATTCGCTTGACGCTGCTG	6.91 z-score	8.44 z-score	4.58 z-score
CCGATTAACATCAGAAATGGGAATGATGTTAATCGGGTCTTGATTCGCTTGACGCTGCTG	0.35 z-score	1.87 z-score	0.586 z-score
CCGATTAACATCAGGGGGGACCCTGATGTTAATCGGGTCTTGATTCGCTTGACGCTGCTG	6.34 z-score	4.11 z-score	6.14 z-score
CCGATTAACATCAAGGGGGGGTGTGATGTTAATCGGGTCTTGATTCGCTTGACGCTGCTG	4.34 z-score	4.12 z-score	4.4 z-score
CCGATTAACATCAAGGGCATTCCTGATGTTAATCGGGTCTTGATTCGCTTGACGCTGCTG	1.84 z-score	0.348 z-score	2.4 z-score
CCGATTAACATCAGGGATACACCTGATGTTAATCGGGTCTTGATTCGCTTGACGCTGCTG	2.29 z-score	1.56 z-score	2.76 z-score
CCGATTAACATCAAGAAACCCCCTGATGTTAATCGGGTCTTGATTCGCTTGACGCTGCTG	9.53 z-score	3.31 z-score	10 z-score
CCGATTAACATCAGGAATCACCCTGATGTTAATCGGGTCTTGATTCGCTTGACGCTGCTG	2.46 z-score	0.907 z-score	7.17 z-score
CCGATTAACATCAAGGAATCCCCTGATGTTAATCGGGTCTTGATTCGCTTGACGCTGCTG	9.79 z-score	3.63 z-score	10.1 z-score
CCGATTAACATCATTATGGGAAATGATGTTAATCGGGTCTTGATTCGCTTGACGCTGCTG	0.604 z-score	2.21 z-score	0.644 z-score
CCGATTAACATCAGGGAAATTAATGATGTTAATCGGGTCTTGATTCGCTTGACGCTGCTG	3.37 z-score	4.18 z-score	2.54 z-score
CCGATTAACATCAAAAATTACCATGATGTTAATCGGGTCTTGATTCGCTTGACGCTGCTG	0.657 z-score	-0.0195 z-score	3.14 z-score
CCGATTAACATCAAAAACTCCCCTGATGTTAATCGGGTCTTGATTCGCTTGACGCTGCTG	9.29 z-score	6.91 z-score	8.62 z-score
CCGATTAACATCAAAACTCCCCATGATGTTAATCGGGTCTTGATTCGCTTGACGCTGCTG	7.13 z-score	5.85 z-score	5.96 z-score
CCGATTAACATCACCCATGGGAATGATGTTAATCGGGTCTTGATTCGCTTGACGCTGCTG	0.782 z-score	2.05 z-score	1.03 z-score
CCGATTAACATCAAACAACCCCCTGATGTTAATCGGGTCTTGATTCGCTTGACGCTGCTG	5.66 z-score	–	5.24 z-score
